Numbering of substitutions follows the chain as printed. Like-named read-outs stand apart in the source and are kept apart here.
B1: Antibody 12422 (antibody)
heavy: QVQLVQSGAEVKKPGSSVKVSCKASGGTFSSYAISWVRQAPGQGLEWMGYISPYMGETHYAQKFQGRVTITADESTSTAYMELSSLRSEDTAVYYCARESYEYFDIWGQGTLVTVSSASTKGPSVFPLAPSSKSTSGGTAALGCLVKDYFPEPVTVSWNSGALTSGVHTFPAVLQSSGLYSLSSVVTVPSSSLGTQTYICNVNHKPSNTKVDKRV[human IgG1 Fc cut from this listing]
light: DIQMTQSPSSLSASVGDRVTITCRASQSISNDLAWYQQKPGKAPKLLIYATSILQSGVPSRFSGSGSGTDFTLTISSLQPEDFATYYCLQYYDYSYTFGQGTKVEIKRTVAAPSVFIFPPSDEQLKSGTASVVCLLNNFYPREAKVQWKVDNALQSGNSQESVTEQDSKDSTYSLSSTLTLSKADYEKHKVYACEVTHQGLSSPVTKSFNRGEC
B2: Antibody 12439 (antibody)
heavy: QVQLVQSGAEVKKPGASVKVSCKASGYTFTSYDISWVRQAPGQGLEWMGWINPYNGGTNYAQKFQGRVTMTRDTSISTAYMELSRLRSEDTAVYYCAREGSGMIVYPGWSYAFDYWGQGTLVTVSSASTKGPSVFPLAPSSKSTSGGTAALGCLVKDYFPEPVTVSWNSGALTSGVHTFPAVLQSSGLYSLSSVVTVPSSSLGTQTYICNVNHKPSNTKVDKRV[human IgG1 Fc cut from this listing]
light: B1 light with S28D, A34G, T51A, I53S, L89Q, Y91H, D93H, Y94T, S95P, Y96N
B3: Antibody 12947 (antibody)
heavy: QVQLVQSGAEVKKPGSSVKVSCKASGGTFSSYAISWVRQAPGQGLEWMGSIQPTAGPARYAQKFQGRVTITADESTSTAYMELSSLRSEDTAVYYCARASLYSVATGSYWKVYHPFDSWGQGTLVTVSSASTKGPSVFPLAPSSKSTSGGTAALGCLVKDYFPEPVTVSWNSGALTSGVHTFPAVLQSSGLYSLSSVVTVPSSSLGTQTYICNVNHKPSNTKVDKRV[human IgG1 Fc cut from this listing]
light: DIQMTQSPSSLSASVGDRVTITCRASQDIYSYLAWYQQKPGKAPKLLIYDASSLQSGVPSRFSGSGSGTDFTLTISSLQPEDFATYYCQQADQYPVTFGQGTKVEIKRTVAAPSVFIFPPSDEQLKSGTASVVCLLNNFYPREAKVQWKVDNALQSGNSQESVTEQDSKDSTYSLSSTLTLSKADYEKHKVYACEVTHQGLSSPVTKSFNRGEC

Tests used:
[1] = test system: Kato-III cells; assay: Cell proliferation assay (Cell titer Glo); format: cell-based; conditions: antibody tested as MCC-DM1 ADC
[2] = molecular target: T1, human FGFR2 IIIc (Homo sapiens, UniProt P21802); assay: ELISA/FACS screening of panning outputs for specificity and cross-reactivity; format: binding; conditions: Uniprot Accession # P21802-1
T1 construct: residues 22-378-TAG; made in house

[3] = molecular target: T2, human FGFR2 IIIb (Homo sapiens, UniProt P21802); assay: as above; format: binding; conditions: Uniprot Accession # P21802-3
T2 construct: residues 22-378-TAG; made in house

[4] = molecular target: T3, human FGFR4 (Homo sapiens, UniProt P22455); assay: as above; format: binding; conditions: Uniprot Accession # P22455
T3 construct: domain, residues 22-369-TAG; made in house

[5] = test system: SNU16 cells; assay: Cell proliferation assay (Cell titer Glo); format: cell-based
[6] = molecular target: T4, IIIc isoform of human FGFR2 (Homo sapiens, UniProt P21802); assay: Biacore binding
T4 construct: residues 22-378-TAG; made in house

[7] = antibody tested as MCC-DM1 ADC, read-out: Cell proliferation IC50, SNU16

Molecule	IC50 [1]	binding to FGFR2 IIIc isoform [2]	binding to FGFR2 IIIb isoform [3]	binding to human FGFR4 [4]	IC50 [5, 7]	IC50 ([5]; antibody tested as SPDB-DM4 ADC, SNU16 cell line, read-out: Cell proliferation IC50)	binding to the IIIc isoform of human FGFR2 [6]
B1	< 3 nM	found to bind	found to bind	found to bind	< 3 nM	0.07 nM	–
B2	< 3 nM	found to bind	found to bind	found to bind	< 3 nM	–	–
B3	–	–	found to bind	–	–	–	unable to bind

Source: patent US20190345250A1, “ANTIBODY DRUG CONJUGATES” (NOVARTIS AG, priority 2013, published 2019)
